Reference: the supplement of paper PMC12217912
Some of the results follow. Sequences were assembled here from the parent chain. Values near 0.05 are background.

B1: TEV protease; numbered along this chain (parent)
chain: MGESLFKGPRDYNPISSSICHLTNESDGHTTSLYGIGFGPFIITNKHLFRRNNGTLVVQSLHGVFKVKDTTTLQQHLVDGRDMIIIRMPKDFPPFPQKLKFREPQREERICLVTTNFQTKSMSSMVSDTSCTFPSGDGIFWKHWIQTKDGQCGSPLVSTRDGFIVGIHSASNFTNTNNYFTSVPKNFMELLTNQEAQQWVSGWRLNADSVLWGGHKVFMVKPEEPFQPVKEATQL

Variants of: B1
Assay: raw area under fraction-flipped curve 0-4 h after induction (AUC4h, not background-subtracted), DNA-recorder readout of cleavage of the substrate (dimensionless); higher = more cleavage of the substrate by the protease variant
Conditions: temperature: 34 °C; time window: 0-4 h after rhamnose induction
Procedure: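 In vivo DNA recorder in E. coli TOP10(DE3) ΔrhaA at 34 °C. Each TEVp single-site mutant (parent TEVp 0) is paired with a single-site variant of the 7-mer TEVs (canonical ENLYFQ|S). The substrate sits between flexible linkers in a Bxb1-sfGFP-TEVs-SsrA fusion, so cleavage stabilises Bxb1 and speeds flipping of a recombination array, read by NGS. The value is the raw area under the fraction-flipped curve over 0-4 h after rhamnose induction (AUC4h), with ≥20 reads per time point. It is not background-subtracted; inactive controls average about 0.047.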
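Further: Bxb1 expression induced with 0.2% (w/v) L-rhamnose at OD600 near 0.5, cultures sampled hourly, flipped fraction per protease–substrate barcode pair counted by paired-end Illumina sequencing.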

Variant	area with substrate ENLYFQC	area with substrate ENLYFQD	area with substrate ENLYFQF	area with substrate ENLYFQG	area with substrate ENLYFQH	area with substrate ENLYFQI	area with substrate ENLYFQK	area with substrate ENLYFQL	area with substrate ENLYFQN	area with substrate ENLYFQP	area with substrate ENLYFQQ	area with substrate ENLYFQR	area with substrate ENLYFQS	area with substrate ENLYFQT	area with substrate ENLYFQV	area with substrate ENLYFQW	area with substrate ENLYFQY	area with substrate ENLYFQE	area with substrate ENLYFQM
P9M	0.101	0.0545	0.0609	0.0865	0.0906	0.0565	0.0518	0.0722	0.0805	0.0814	0.0823	0.0618	0.115	0.0835	0.0704	0.0582	0.0815	–	–
I110M	0.0601	–	–	–	–	–	0.0513	0.0492	0.0565	–	–	0.0568	0.0764	0.0362	0.0583	0.051	0.0712	–	–
H47V	0.0601	–	0.0719	0.0584	0.0606	0.0554	0.0659	0.0615	0.0562	–	0.0708	0.0619	0.0634	0.0557	0.0429	0.0591	0.0607	0.0557	0.0611
K148P	0.0699	0.0568	–	0.0816	–	–	0.0689	–	0.0676	–	–	0.0613	0.0798	0.0451	–	0.0641	0.053	0.0613	–
K142M	0.153	0.0677	–	0.105	0.0937	0.03	–	0.0542	0.0833	–	–	0.0684	0.102	0.0596	–	0.0606	0.0911	–	0.0657
H215R	0.0623	–	–	0.0819	0.063	0.0483	0.0621	0.0583	0.0654	0.0667	0.0536	0.055	0.074	–	0.0596	0.0645	–	0.0629	–
K120Q	0.128	–	–	0.0927	–	0.0581	–	0.0695	0.0787	–	–	0.0499	0.104	0.06	0.0444	0.0404	0.0809	–	0.0645
I43P	0.0548	0.0407	–	0.0542	0.0367	0.0419	0.0414	0.0403	0.0373	–	0.0497	0.0378	0.0462	0.0363	–	0.0348	0.0448	0.0429	0.0509
F226A	0.116	–	–	–	0.115	–	–	0.0698	–	0.0666	–	–	0.112	0.0599	–	–	0.0943	–	–
T115W	0.133	0.0847	–	–	–	0.0816	–	0.0764	–	0.0627	–	–	0.0983	0.0788	0.0629	–	–	–	0.076
N45A	0.108	0.0728	–	0.0938	0.0718	–	0.0663	0.0559	0.0685	0.054	0.0627	–	0.0861	0.0509	0.0546	0.0622	0.0695	–	0.076
Y34Q	0.112	–	–	–	–	–	0.0606	0.0593	–	–	–	–	0.0948	0.0727	0.0529	0.0444	–	–	–
S130N	0.124	–	0.0444	–	0.0689	–	0.0706	0.0451	–	–	–	–	0.0925	0.0741	0.0509	0.0702	–	–	0.0692
S154P	0.0744	–	–	0.0584	–	0.0715	–	–	0.0539	–	–	–	0.0607	–	–	0.051	–	–	–
F173L	0.139	–	–	0.112	0.0606	–	0.0649	0.0704	0.0717	–	–	0.0646	0.116	0.0708	0.0578	0.0594	0.0645	–	–
S124M	0.0983	0.0742	–	0.0904	–	0.0538	0.0681	0.0617	–	–	0.0754	0.0591	0.105	0.0804	–	0.0646	–	–	0.127
S121V	0.108	0.0347	0.0577	0.102	–	0.0596	0.0672	0.0529	0.0645	0.0331	–	0.0533	0.102	0.0681	–	0.0666	0.0979	–	0.0557
Q97S	0.106	0.0838	–	–	0.0769	–	–	–	–	0.0828	–	–	0.104	–	–	–	0.142	–	–
S17K	0.145	0.08	0.0704	0.101	0.0799	0.025	0.076	0.0662	0.0574	0.059	–	0.0651	0.105	0.0662	0.0724	0.053	0.084	0.0553	0.0899
T114P	0.0715	–	–	–	0.0539	0.0555	–	0.0468	0.0563	0.0574	0.0544	0.0607	0.0768	0.0761	–	0.061	0.0827	0.0746	–
K185E	0.117	–	0.108	–	0.0883	0.0694	0.0679	0.0618	0.0748	0.0833	0.0665	–	0.115	0.0718	–	0.0774	0.102	–	0.0833
L61K	0.11	0.0548	–	–	–	0.0562	0.0516	0.0685	0.0733	0.0528	0.0694	0.0627	0.11	0.0551	–	0.0521	–	–	–
I86K	0.0368	–	0.0272	–	0.049	0.043	–	0.0387	0.0265	0.0306	0.0453	0.0217	0.0395	0.0352	–	0.032	0.0322	–	0.0361
E3S	0.143	–	0.0754	0.123	0.0778	–	0.0646	0.0444	0.0773	0.0653	–	0.0599	0.124	0.0573	–	0.0824	–	–	0.0965
F133Y	0.125	–	0.0414	–	0.0791	–	0.0706	0.0696	0.0622	–	–	0.0573	0.107	0.0786	–	0.066	–	–	–
N186E	0.133	0.0443	0.0521	–	0.0835	–	0.0566	0.0803	0.064	–	–	–	0.0977	–	–	–	–	–	0.0834
Q74E	0.112	–	–	–	0.0941	–	0.0601	0.0573	0.0702	0.0467	–	0.071	0.103	0.0842	–	0.0711	0.068	–	0.0977
Q151P	0.0535	0.0529	0.048	0.0534	0.089	0.0703	0.06	0.0611	0.0838	–	–	0.058	0.0621	–	–	–	0.046	–	0.0587
G63D	0.105	–	0.0659	0.0912	0.0672	0.0527	0.0507	–	0.0656	0.046	–	0.0517	0.0891	0.0616	0.07	0.0748	0.0809	0.0757	–
